The campaign covered roughly 220,000 compounds. About 5,700 (2.6%) were called active. This list was built around the results that the source calls inconclusive (neither active nor inactive); the mix of calls is not that of the screen. Calls follow the shape of the dose curve; as a rule, active = well fitted inhibition curve with a large enough effect; inconclusive = small, poorly fitted or top-dose-only effect; inactive = no such curve, though single readings can be large or run the other way. Potencies of inconclusive entries are doubtful fits and often do not repeat.
What follows are compounds tested against Lysine-specific demethylase 5B (Homo sapiens) (UniProt Q9UGL1) (assay: Primary screen for KDM5B Histone Demethylases FDH-coupled qHTS). Details: FDH-coupled NADH fluorescence (FDH is formaldehyde dehydrogenase); activity change, negative = inhibition: at 57.7 µM (top of the series) unless noted.
Procedure, shortened: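 Here, H3K4me3 peptide (12.5 µM in substrate mix) is demethylated by KDM5BΔAP, 200 nM final, after 10 min compound exposure. Formaldehyde product is coupled through FDH (0.25 U/mL in mix) to NADH fluorescence; 30-min ΔRFU feeds dose-response curves.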
Also: nearly all actives have a fitted effect of over 70% in size.
For activity change, negative = inhibition in this document: 0% is about no effect.
Potency is read from the fitted curve at half-maximal effect; tags tell the direction and shape of the fitted curve.

Sequence of UniProt Q9UGL1 (Q9UGL1 whole entry, looked up): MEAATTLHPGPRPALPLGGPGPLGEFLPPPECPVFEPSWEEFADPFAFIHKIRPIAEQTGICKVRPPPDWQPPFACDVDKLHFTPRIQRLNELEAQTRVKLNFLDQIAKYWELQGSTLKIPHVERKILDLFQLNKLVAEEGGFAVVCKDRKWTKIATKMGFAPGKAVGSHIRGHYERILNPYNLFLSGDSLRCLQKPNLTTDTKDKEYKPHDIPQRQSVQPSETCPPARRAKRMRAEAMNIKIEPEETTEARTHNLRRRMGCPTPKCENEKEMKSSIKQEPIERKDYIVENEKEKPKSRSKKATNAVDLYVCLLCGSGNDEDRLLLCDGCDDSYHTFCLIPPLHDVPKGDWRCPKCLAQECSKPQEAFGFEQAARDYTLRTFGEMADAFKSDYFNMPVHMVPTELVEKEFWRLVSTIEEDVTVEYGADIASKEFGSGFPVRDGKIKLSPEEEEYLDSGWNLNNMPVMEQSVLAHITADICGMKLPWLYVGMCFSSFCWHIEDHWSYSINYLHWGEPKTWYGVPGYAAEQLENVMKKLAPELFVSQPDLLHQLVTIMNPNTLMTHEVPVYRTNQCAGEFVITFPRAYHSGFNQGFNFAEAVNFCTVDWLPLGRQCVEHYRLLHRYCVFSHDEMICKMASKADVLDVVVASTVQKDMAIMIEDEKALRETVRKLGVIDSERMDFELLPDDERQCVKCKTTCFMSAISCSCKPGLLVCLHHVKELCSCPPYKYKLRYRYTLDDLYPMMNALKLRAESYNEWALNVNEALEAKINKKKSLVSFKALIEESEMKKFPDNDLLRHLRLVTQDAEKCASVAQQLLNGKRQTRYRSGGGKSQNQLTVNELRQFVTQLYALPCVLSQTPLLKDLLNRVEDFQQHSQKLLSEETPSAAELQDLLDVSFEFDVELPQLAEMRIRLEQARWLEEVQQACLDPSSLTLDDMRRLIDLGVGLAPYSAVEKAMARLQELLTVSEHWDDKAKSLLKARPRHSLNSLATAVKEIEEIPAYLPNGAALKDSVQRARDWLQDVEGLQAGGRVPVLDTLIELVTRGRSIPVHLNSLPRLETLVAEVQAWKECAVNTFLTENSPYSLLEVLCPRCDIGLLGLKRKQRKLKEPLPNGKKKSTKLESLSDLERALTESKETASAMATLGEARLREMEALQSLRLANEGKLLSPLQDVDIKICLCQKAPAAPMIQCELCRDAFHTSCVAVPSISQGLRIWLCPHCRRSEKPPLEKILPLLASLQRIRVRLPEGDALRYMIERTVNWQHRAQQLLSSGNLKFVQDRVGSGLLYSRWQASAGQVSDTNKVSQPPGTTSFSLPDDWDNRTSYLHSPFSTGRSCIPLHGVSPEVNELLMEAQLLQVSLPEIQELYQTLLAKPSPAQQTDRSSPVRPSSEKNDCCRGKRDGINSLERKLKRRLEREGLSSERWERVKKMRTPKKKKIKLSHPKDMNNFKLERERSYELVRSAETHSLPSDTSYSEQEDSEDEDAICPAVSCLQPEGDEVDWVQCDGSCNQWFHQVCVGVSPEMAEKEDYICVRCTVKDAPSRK

Row | Compound | Potency | activity change, negative = inhibition
1 | O=C(c1ccccc1)N1CCCC2(C1)Nc1cccnc1NC2=NC1CCCC1 (centres undefined) | active: 28.2 µM | 
2 | O=C(Nc1cccc(NC(=O)c2ccccc2F)c1)c1ccccc1 | inconclusive: 35.5 µM [inhibitor, single point] | 
3 | CCCC(=O)Nc1cc(C(=O)NCc2ccccc2)ccc1S(=O)(=O)c1ccc(Cl)cc1 | inconclusive: 39.8 µM [inhibitor, single point] | 
4 | Cc1cccc(-c2nc(CN3CCC(C(=O)N4CCc5nc6cc[nH]n6c(=O)c5C4)CC3)c(C)o2)c1 | inconclusive: 31.6 µM [inhibitor, partial curve, poor fit] | 
5 | Cc1ccccc1N1Cc2c(NC3CCCC3)ncnc2N(C)CC1=O | inconclusive: 20 µM [inhibitor, single point] | 
6 | COc1ccccc1NC(=O)C1=C(C)Nc2nc(CCCO)nn2C1c1cccc(O)c1 (centres undefined) | inconclusive: 15.8 µM [inhibitor, partial curve, poor fit] | 
7 | COc1nccnc1NC1CCN(C(=O)NCCc2ccccc2)CC1 | inconclusive: 28.2 µM [inhibitor, partial curve, poor fit] | 
8 | Cc1ccccc1C(=O)N1CC2(Cc3ccccc3N([S+](C)(=O)[O-])C2)C1 | active: 25.1 µM | 
9 | COC(=O)c1sccc1S(=O)(=O)Nc1ccccc1OC(F)F |  | inactive: -16.1%
10 | Cc1cc(NC(=O)c2ccc(CN3CC[C@H](O)C3)cc2)ccc1F | inconclusive: 25.1 µM [inhibitor, partial curve, poor fit] | 
11 | Cc1ccc(C(=O)NC2CCN(c3cc(-c4ccccc4)[nH]n3)CC2)s1 | inconclusive: 22.4 µM [inhibitor, partial curve] | 
12 | Cc1ccccc1-c1nc(C#N)c(NCCN(C)C)o1 | inconclusive: 25.1 µM [inhibitor, partial curve, poor fit] | 
13 | CCc1nc2c(c(-c3ccc(OC)cc3)n1)CCN(Cc1cccc3ccccc13)CC2 | inconclusive: 56.2 µM [inhibitor, partial curve, poor fit] | 
14 | COc1ccc(-c2[nH]nc3ncc(C(=O)N4CC(O)C4)nc23)c(C)c1 |  | inactive: -8.96% [at 86.2 µM]
15 | Cc1ccc(S(=O)(=O)c2nnn3c2nc(NC(C)C)c2sccc23)cc1 | inconclusive: 2.24 µM [inhibitor, full curve, poor fit] | 
16 | COCCNc1ncnc2c1CN(C1CCCNCC1)C(=O)CN2C (centres undefined) | inconclusive: 50.1 µM [inhibitor, partial curve] | 
17 | Cc1cccc(-c2nc3ccccc3n2Cc2ccccc2)c1 | inconclusive: 44.7 µM [inhibitor, single point] | 
18 | COc1cc2sc(C)nc2c2ccccc12 | inconclusive: 28.2 µM [inhibitor, partial curve, poor fit] | 
19 | CCOC(=O)N1CCc2c(sc(NCc3cccc(F)c3)c2C(=O)Nc2ccc(OC)cc2OC)C1 | inconclusive: 22.4 µM [inhibitor, partial curve, poor fit] | 
20 | CCSc1nc2n(n1)C(c1cccc(O)c1)C1=C(CC(C)(C)CC1=O)N2 (centres undefined) | inconclusive: 15.8 µM [inhibitor, partial curve, poor fit] | 
21 | CCNC(=O)NC(=O)COC(=O)c1cc(-c2cccs2)nc2ccccc12 | inconclusive: 4.47 µM [inhibitor, partial curve, poor fit] | 
22 | Cc1ccc(-c2cc(C(=O)N3CCN(CC(=O)N4CCOCC4)CC3)c3ccccc3n2)cc1 | inconclusive: 28.2 µM [inhibitor, single point] | 
23 | CN(C)c1ccc(CNC(=O)c2nccnc2N)cn1 | inconclusive: 28.2 µM [inhibitor, partial curve, poor fit] | 

Row | Compound | Potency | activity change, negative = inhibition
24 | Cc1ccsc1CN(C)C(=O)CCl |  | inactive: 8.18%
25 | CCN1CCC(NC(=O)CC23CC4CC(CC(C4)C2)C3)CC1 |  | inactive: -1.52%
26 | COc1ccc(OC)c(-c2cc(C(=O)Nc3c(C)nn(Cc4ccccc4Cl)c3C)no2)c1 | inconclusive: 25.1 µM [inhibitor, partial curve, poor fit] | 
27 | COc1ccc(NC(=O)C2(C)CCc3cnc(N4CCOCC4)nc32)cn1 (centres undefined) | active: 35.5 µM | 
28 | COc1ccc(CC(=O)NCCc2sc3nc(-c4ccc(OC)cc4)nn3c2C)cc1 | inconclusive: 1.78 µM [inhibitor, full curve, poor fit] | 
29 | CC(C)C(=O)N1N=C(c2ccc3c(c2)OCO3)CC1c1ccc2nccnc2c1 (centres undefined) |  | inactive: 12.7%
30 | Cc1[nH]c2ccc(C(=O)NCCNC(=O)c3ccc(C(F)(F)F)cc3)cc2c1C |  | inactive: 21%
31 | CC1CCc2c(C(=O)Nc3cccc(Br)c3)csc2C1 (centres undefined) |  | inactive: -18.3%
32 | COCCN1C(=O)c2ccccc2C(C(=O)Nc2nc3ccccc3s2)C12CCCC2 (centres undefined) | inconclusive: 12.6 µM [inhibitor, partial curve] | 
33 | O=C(CSC1=Nc2ccccc2N=C(c2ccc(F)cc2)C1)Nc1cccc(C(F)(F)F)c1 | inconclusive: 2.51 µM [inhibitor, full curve, poor fit] | 
34 | CCOC(=O)c1ccc(Oc2c(C(F)(F)F)oc3cc(OC(=O)c4ccccc4)ccc3c2=O)cc1 |  | inactive: 7.29%
35 | Cn1ccnc1CNc1nccc(-c2cnn(-c3ccccc3F)c2)n1 | inconclusive: 22.4 µM [inhibitor, single point] | 
36 | O=[S+]([O-])(c1cccs1)N1CC(Oc2ccc(F)c(F)c2)C1 |  | inactive: -5.03% [at 149 µM]
37 | N#Cc1cccc(OCc2ccc(C#N)cc2F)c1 |  | inactive: 13.1%
38 | COc1ccccc1NC(=O)CCn1nc(-c2ccccc2OC)c2c(C)cc(C)nc21 | inconclusive: 14.1 µM [inhibitor, partial curve, poor fit] | 
39 | COc1ccc(-c2nc3c(c(=O)[nH]2)CCN(C(=O)c2cc(Cl)ccc2OC)C3)cc1 | inconclusive: 31.6 µM [inhibitor, partial curve, poor fit] | 
40 | CCN1C(=O)C(CC(=O)NCc2cccs2)Sc2ncccc21 (centres undefined) | inconclusive: 28.2 µM [inhibitor, single point] | 
41 | O[C@@H]1C[C@@H](c2nnc3n2CCN(Cc2ccc4c(c2)CCO4)C3)N(Cc2ccccc2)C1 | inconclusive: 25.1 µM [inhibitor, partial curve, poor fit] | 
42 | Cc1ccc(S(=O)(=O)NN2C(=O)c3ccccc3NC2c2ccccc2F)cc1 (centres undefined) | inconclusive: 14.1 µM [inhibitor, partial curve, poor fit] | 
43 | COc1ccc(NC(=O)CSc2nc3ccccc3nc2N2CCC(C)CC2)cc1 | inconclusive: 17.8 µM [inhibitor, partial curve, poor fit] | 
44 | CCC1CCc2c(sc(NC(=O)c3c(-c4ccccc4)noc3C)c2C(=O)OC)C1 (centres undefined) |  | inactive: -15.6%
45 | CCS(=O)(=O)N1CCc2n[nH]c(=O)n2CC1 | inconclusive: 25.1 µM [inhibitor, single point] | 
46 | COc1ccc2c(c1)-c1nc(NC(=O)c3ccc(OC)c(Br)c3)sc1CC2 | inconclusive: 2.24 µM [inhibitor, partial curve, poor fit] | 

Row | Compound | Potency | activity change, negative = inhibition
47 | COc1ccc(OC)c(NC(=O)c2c(NCc3sccc3C)sc3c2CCCCC3)c1 | inconclusive: 12.6 µM [inhibitor, partial curve, poor fit] | 
48 | Cc1ccc2oc(C(=O)O)c(C)c2c1 |  | inactive: 7.54%
49 | CN1N=C2c3ccccc3CCCC2C1c1ccc(F)cc1 (centres undefined) | inconclusive: 25.1 µM [inhibitor, partial curve, poor fit] | 
50 | CCOc1ccc2c(=O)c(-c3ccc(OC)c(OC)c3)coc2c1 |  | inactive: 0.118%
51 | N#CCCNC12CC3CC(CC(C3)C1)C2 |  | inactive: 3.72%
52 | CNC(=O)NC(=O)COC(=O)c1cc(-c2ccco2)nc2ccccc12 | inconclusive: 25.1 µM [inhibitor, partial curve, poor fit] | 
53 | CCN1CC(C(=O)N2CCN(Cc3cc(OC)ccc3OC)CC2)CC1=O (centres undefined) |  | inactive: -24.6%
54 | CCC(C(=O)OCc1cc(=O)n2nc(C)sc2n1)c1ccccc1 (centres undefined) | inconclusive: 25.1 µM [inhibitor, partial curve, poor fit] | 
55 | COc1ccc(NC(=O)c2cnc3c(c2)N(C(=O)CCc2ccccc2)CCC3)cn1 |  | inactive: 0.196% [at 86.2 µM]
56 | Cc1ccc(C(=O)Nc2c(-c3ccccc3)nc3ccccn23)cc1 |  | inactive: 8.42%
57 | Cc1nnc(N2CCC(C(=O)Nc3ccc(F)cc3)CC2)c2nn(-c3ccc(Cl)cc3)c(C)c12 | inconclusive: 39.8 µM [inhibitor, partial curve, poor fit] | 
58 | Cc1ccc(C2c3[nH]c4ccccc4c3CCN2C(=O)c2ccccc2Br)cc1 (centres undefined) |  | inactive: -23.3%
59 | O=[N+]([O-])c1ccc(Nc2ccc(Cl)cc2)c2nonc12 |  | inactive: -30%
60 | O=C(O)CN(Cc1ccccc1)S(=O)(=O)c1cc(Cl)ccc1Cl |  | inactive: -1.04%
61 | CC(C)c1cc(C(=O)N2CCNC(=O)C2)c2ccccc2n1 |  | inactive: -11%
62 | O=C(O)C/C(=C/c1ccsc1)c1nc2ccccc2s1 |  | inactive: -13%
63 | CCOC(=O)c1ccc(NC(=O)C2CCOCC2)cc1 |  | inactive: 29.7%
64 | Nc1ncccc1CN1CCN(C(=O)CO)CC(C(=O)O)C1 (centres undefined) | inconclusive: 14.1 µM [inhibitor, partial curve] | 
65 | CC[C@H]1CN(C(=O)NC2CCCCC2)CC[C@H]1CC(=O)Nc1nccs1 | inconclusive: 31.6 µM [inhibitor, single point] | 
66 | CN(C)CCCNCC(=O)c1c(-c2ccccc2)n(C)c2ccccc12 | inconclusive: 10 µM [inhibitor, partial curve, poor fit] | 
67 | Cc1cc(C)cc(C(=O)NCC(=O)O)c1 |  | inactive: 30.3%
68 | Cc1ccc(NC(=O)CSc2nnc(-c3cc4occc4n3C)n2-c2ccccc2C)c(Cl)c1 |  | inconclusive: -31% [inhibitor]
69 | Cc1ccc(-c2[nH]ncc2CNCc2cccnc2)cc1 | inconclusive: 39.8 µM [inhibitor, single point] | 

Source: PubChem BioAssay AID1347165 (National Center for Advancing Translational Sciences (NCATS), 2019)
